The values that follow come from article PMC10611716.

Amino acid sequences for entries named in this document (tags omitted). Residues count along the entry.
UniProt A2AN08, residues 1222-1996: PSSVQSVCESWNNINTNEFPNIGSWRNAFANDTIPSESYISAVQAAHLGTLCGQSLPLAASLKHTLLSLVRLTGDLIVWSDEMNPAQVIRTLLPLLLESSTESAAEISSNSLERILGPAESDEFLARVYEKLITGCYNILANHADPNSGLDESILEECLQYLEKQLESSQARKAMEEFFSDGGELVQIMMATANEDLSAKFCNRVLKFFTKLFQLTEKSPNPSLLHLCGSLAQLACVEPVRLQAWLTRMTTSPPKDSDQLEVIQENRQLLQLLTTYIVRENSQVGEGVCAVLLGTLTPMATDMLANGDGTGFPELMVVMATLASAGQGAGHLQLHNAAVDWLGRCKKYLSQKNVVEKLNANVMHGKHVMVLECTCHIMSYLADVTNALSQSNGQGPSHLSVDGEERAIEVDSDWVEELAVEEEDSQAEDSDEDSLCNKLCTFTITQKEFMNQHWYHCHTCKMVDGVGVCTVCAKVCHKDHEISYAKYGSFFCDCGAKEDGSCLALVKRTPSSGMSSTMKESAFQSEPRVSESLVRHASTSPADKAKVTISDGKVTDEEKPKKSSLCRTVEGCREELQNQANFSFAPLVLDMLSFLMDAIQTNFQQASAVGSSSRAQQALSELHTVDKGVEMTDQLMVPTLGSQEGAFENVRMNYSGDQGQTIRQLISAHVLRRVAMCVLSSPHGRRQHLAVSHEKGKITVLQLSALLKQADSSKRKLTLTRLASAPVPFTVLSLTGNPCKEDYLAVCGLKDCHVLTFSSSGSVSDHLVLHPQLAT
UniProt Q9P0J7: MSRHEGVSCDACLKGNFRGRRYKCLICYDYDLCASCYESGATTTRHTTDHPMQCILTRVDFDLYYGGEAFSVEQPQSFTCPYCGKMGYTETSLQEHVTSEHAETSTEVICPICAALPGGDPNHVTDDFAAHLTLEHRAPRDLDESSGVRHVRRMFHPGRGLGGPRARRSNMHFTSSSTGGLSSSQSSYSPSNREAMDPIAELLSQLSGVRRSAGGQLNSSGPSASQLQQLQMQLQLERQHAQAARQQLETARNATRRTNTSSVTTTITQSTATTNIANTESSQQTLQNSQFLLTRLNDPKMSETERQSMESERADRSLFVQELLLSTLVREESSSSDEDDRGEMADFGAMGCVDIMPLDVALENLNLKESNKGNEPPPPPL
UniProt Q5T4S7: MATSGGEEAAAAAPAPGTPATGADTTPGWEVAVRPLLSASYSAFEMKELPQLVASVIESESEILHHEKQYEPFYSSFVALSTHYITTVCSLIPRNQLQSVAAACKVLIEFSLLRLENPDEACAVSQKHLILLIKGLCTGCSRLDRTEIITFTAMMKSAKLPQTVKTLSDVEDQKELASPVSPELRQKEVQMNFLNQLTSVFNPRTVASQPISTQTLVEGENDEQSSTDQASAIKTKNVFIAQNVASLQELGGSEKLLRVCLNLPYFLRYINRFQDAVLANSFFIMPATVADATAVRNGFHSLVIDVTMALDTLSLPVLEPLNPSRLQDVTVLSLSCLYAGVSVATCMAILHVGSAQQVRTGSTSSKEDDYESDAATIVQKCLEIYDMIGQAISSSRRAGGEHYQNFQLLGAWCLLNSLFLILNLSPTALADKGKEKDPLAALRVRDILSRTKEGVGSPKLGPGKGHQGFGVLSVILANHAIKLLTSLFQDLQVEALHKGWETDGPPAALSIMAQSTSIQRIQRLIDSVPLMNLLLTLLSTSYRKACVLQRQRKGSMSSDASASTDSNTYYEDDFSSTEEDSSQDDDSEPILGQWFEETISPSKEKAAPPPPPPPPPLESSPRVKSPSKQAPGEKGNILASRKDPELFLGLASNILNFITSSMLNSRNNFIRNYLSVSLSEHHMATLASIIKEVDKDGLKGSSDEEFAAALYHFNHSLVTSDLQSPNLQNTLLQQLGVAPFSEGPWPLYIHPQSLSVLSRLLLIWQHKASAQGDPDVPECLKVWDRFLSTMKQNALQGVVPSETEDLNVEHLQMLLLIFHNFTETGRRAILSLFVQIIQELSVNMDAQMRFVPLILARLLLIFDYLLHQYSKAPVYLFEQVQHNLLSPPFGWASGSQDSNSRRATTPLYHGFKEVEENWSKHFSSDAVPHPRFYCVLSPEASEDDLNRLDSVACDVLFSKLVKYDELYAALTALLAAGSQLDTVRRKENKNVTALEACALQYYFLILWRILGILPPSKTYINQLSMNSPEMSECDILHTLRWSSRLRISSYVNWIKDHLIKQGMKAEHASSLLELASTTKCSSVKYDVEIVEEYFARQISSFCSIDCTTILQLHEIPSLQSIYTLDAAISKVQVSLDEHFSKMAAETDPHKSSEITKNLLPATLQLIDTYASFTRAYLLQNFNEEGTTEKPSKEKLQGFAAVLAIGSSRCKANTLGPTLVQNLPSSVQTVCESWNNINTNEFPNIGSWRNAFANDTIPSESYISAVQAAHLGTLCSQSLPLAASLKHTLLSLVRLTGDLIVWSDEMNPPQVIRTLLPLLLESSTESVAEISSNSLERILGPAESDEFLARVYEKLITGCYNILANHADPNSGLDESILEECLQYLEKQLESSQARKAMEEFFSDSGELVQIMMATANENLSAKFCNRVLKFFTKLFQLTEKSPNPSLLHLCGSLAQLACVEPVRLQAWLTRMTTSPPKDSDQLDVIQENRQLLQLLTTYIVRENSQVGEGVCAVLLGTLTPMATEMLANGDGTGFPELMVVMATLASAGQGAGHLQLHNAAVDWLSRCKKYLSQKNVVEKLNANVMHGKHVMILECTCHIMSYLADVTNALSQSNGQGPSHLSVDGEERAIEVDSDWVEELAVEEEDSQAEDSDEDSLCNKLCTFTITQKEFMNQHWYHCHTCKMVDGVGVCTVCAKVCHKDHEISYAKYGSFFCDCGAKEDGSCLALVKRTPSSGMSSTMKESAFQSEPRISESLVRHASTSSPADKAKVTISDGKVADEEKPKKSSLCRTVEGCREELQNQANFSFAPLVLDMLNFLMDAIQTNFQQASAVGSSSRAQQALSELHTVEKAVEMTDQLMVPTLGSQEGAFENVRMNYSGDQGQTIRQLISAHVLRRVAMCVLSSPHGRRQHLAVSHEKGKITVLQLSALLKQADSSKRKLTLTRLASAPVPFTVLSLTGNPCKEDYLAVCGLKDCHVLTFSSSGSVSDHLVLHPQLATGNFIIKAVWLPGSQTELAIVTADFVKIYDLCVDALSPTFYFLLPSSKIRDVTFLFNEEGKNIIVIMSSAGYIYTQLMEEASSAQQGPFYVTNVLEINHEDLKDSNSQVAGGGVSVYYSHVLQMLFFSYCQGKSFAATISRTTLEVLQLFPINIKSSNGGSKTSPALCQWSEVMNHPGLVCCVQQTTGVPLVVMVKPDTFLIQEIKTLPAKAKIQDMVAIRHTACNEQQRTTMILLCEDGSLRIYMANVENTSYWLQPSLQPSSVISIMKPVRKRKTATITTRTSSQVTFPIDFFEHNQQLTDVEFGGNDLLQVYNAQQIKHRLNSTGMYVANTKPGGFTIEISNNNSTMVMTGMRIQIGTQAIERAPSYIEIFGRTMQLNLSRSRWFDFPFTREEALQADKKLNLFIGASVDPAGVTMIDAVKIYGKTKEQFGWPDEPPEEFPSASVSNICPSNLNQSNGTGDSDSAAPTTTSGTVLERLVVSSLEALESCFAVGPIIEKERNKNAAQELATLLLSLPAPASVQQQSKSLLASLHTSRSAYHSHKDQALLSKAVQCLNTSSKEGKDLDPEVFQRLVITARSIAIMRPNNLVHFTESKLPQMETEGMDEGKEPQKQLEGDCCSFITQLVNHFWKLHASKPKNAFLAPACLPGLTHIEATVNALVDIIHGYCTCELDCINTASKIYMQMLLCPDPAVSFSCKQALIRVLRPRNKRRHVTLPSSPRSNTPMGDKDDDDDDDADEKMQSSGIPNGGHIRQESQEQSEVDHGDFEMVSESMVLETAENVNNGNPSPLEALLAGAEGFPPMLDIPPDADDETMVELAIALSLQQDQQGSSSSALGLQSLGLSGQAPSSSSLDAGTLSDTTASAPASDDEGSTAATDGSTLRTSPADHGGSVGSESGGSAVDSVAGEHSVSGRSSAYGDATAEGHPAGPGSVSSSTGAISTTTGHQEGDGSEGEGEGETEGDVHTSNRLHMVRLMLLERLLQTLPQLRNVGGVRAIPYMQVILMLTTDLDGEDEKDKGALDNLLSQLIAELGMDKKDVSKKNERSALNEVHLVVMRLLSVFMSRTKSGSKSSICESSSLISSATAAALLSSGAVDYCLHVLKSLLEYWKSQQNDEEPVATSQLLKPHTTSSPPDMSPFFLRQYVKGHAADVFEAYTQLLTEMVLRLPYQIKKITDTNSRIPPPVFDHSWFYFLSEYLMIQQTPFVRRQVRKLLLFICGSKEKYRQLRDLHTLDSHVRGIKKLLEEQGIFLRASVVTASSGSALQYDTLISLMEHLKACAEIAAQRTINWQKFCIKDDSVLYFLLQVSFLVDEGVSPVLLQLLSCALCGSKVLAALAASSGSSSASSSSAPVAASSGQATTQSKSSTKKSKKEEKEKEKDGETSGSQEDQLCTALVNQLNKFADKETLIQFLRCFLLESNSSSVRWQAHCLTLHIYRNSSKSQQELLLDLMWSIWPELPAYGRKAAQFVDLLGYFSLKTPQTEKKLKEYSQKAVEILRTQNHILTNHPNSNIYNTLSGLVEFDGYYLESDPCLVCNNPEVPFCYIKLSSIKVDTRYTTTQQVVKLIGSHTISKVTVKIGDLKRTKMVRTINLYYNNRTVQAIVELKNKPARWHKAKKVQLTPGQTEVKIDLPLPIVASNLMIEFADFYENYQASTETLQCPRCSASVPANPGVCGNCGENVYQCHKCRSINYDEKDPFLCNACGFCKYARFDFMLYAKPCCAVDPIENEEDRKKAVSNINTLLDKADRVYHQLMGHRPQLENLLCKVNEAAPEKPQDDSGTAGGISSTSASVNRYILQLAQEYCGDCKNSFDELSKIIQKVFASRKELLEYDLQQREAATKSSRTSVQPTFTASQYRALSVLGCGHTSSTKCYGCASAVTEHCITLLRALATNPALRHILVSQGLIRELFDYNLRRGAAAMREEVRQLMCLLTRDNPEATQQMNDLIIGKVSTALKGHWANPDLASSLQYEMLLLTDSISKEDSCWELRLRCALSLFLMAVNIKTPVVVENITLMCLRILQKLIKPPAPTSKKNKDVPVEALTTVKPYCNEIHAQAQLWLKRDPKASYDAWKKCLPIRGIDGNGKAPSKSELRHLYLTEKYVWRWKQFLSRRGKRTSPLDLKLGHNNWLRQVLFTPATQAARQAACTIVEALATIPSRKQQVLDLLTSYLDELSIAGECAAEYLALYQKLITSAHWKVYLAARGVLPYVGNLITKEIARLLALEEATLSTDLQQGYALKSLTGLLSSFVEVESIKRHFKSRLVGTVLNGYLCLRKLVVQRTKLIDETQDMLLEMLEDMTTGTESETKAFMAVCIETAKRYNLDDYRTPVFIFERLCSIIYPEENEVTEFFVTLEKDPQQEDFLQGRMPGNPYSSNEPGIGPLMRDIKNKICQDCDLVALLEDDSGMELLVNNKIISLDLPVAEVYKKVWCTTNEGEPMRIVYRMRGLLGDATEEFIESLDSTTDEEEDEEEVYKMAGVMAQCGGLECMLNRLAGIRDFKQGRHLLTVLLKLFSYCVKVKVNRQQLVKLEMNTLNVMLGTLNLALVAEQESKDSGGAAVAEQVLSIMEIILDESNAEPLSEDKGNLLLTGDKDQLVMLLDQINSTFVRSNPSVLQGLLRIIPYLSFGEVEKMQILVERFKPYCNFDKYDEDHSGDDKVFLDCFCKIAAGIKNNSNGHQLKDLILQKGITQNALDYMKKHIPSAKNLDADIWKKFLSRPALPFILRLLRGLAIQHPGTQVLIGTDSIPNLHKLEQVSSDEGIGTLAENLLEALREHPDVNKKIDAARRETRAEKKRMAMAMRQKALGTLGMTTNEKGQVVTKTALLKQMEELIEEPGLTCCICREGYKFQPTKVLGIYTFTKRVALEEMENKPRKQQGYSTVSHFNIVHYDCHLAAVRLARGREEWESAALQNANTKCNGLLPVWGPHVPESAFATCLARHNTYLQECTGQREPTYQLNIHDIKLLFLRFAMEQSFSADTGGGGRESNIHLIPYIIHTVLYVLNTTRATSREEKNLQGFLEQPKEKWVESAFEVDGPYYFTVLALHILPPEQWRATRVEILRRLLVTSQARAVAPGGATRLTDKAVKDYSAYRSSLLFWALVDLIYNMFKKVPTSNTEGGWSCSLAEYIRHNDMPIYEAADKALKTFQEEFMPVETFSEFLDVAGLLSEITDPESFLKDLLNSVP

Assay [1] deals with Arg-starting control peptide R-nsP4 (11-mer Sindbis nsP4-derived peptide) (Sindbis virus). Nature of the assay: pull-down; biotinylated UBE2M and X-nsP4 peptides on streptavidin magnetic beads; extract of HAP1 WT cells transiently expressing UBR4-N-FLAG (300-500 ug total protein); binding buffer 20 mM HEPES pH 7.9, 200 mM KCl, 0.05% Tween 20, 10% glycerol; overnight at 4 C; immunoblot; only the target purified. On the technique in general: A western blot detects proteins with antibodies after separation by electrophoresis.

Assay [2] deals with Gly-starting control peptide G-nsP4 (11-mer Sindbis nsP4-derived peptide) (Sindbis virus). The assay is described as above.
Assay [3] has as its target Phe-starting control peptide F-nsP4 (11-mer Sindbis nsP4-derived peptide) (Sindbis virus). The description is as above.
Assay [4] addresses T1, FI-UBE2M peptide (XY-UBE2M, Arg/N-degron type 2 control) (human).
T1 sequence (peptide, biotin on the added C-terminal lysine (K-biotin)): FIKLFSLKQQKK
Nature of the assay: pull-down; biotinylated peptides on streptavidin magnetic beads; extract of HeLa cells transiently expressing UBR4-V5 (300-500 ug total protein); binding buffer 20 mM HEPES pH 7.9, 200 mM KCl, 0.05% Tween 20, 10% glycerol; overnight at 4 C; immunoblot; only the target purified.

The target in assay [5] is T2, MF-UBE2M peptide (XY-UBE2M, NatC/E/F-type N-terminus) (human).
T2 sequence (peptide, biotin on the added C-terminal lysine (K-biotin)): MFKLFSLKQQKK
Described as above.

The target in assay [6] is T3, ML-UBE2M peptide (XY-UBE2M, NatC/E/F-type N-terminus) (human).
T3 sequence (peptide, biotin on the added C-terminal lysine (K-biotin)): MLKLFSLKQQKK
The assay is described as above.

The target in assay [7] is T4, MY-UBE2M peptide (XY-UBE2M, NatC/E/F-type N-terminus) (human).
T4 sequence (peptide, biotin on the added C-terminal lysine (K-biotin)): MYKLFSLKQQKK
The description is as above.

Assay [8] addresses T5, RI-UBE2M peptide (XY-UBE2M, Arg/N-degron type 1 control) (human).
T5 sequence (peptide, biotin on the added C-terminal lysine (K-biotin)): RIKLFSLKQQKK
The description is as above.

Assay [9] addresses T6, non-Nt-acetylated UBE2M peptide (MI-UBE2M), biotinylated 11-mer from the N-terminal sequence of UBE2M (human).
T6 sequence (peptide, biotin on the added C-terminal lysine (K-biotin)): MIKLFSLKQQKK
The description is as above.

These are yes or no findings as the source states them, for the method shown. In cells and extracts the contact can be indirect. Some entries that bind do so weakly or less than the wild type.

For “UBR4-N-FLAG, N-terminal segment of mouse UBR4 containing the UBR box (from UniProt A2AN08 1222-1996) (domain or fragment)”, the binding result in assay [1], in assay [2] and in assay [3] was “no binding” in each case.

Take “UBR2 (endogenous) (from UniProt Q8IWV8 1-1755) (enzyme)”: the binding entry in [4] is listed as “binds”; in [5], “binds”; in [6], “binds”; in [7], “binds”; in assay [8], “binds weakly”; in assay [9], “binds”. Besides, the results for the binding result in [1], in assay [2] and in assay [3] were “no binding”, “no binding” and “binds”, respectively.

In the case of “KCMF1 (endogenous) (from UniProt Q9P0J7 1-381) (enzyme)”, the binding entry in [4] is reported as “binds”; in assay [5] it was “binds”; in [6] it was “binds”; in [7] it was “binds”; in [8], “binds weakly”.

As for “full-length UBR4-V5 (human) (from UniProt Q5T4S7 1-5183) (enzyme)”, the binding entry in assay [4] is on record as “binds”; in assay [5], “binds”; in assay [6], “binds”; in assay [7] it was “binds”; in [8], “binds weakly”; in [9], “binds”.
